In the supplement of paper PMC3334620:
Over roughly 33,000 sequences, “E-score (-0.5 to 0.5)” has its median near -0.017; the highest 2% begin near 0.3. The list shows a part of the results.

Each sequence was assayed against T1, Sut1 (UniProt P53032) (assay: PBM E-score (8-mer binding enrichment) (E-score (-0.5 to 0.5)); higher = stronger / more preferred TF binding; most listed sequences are background and not binding sites). Details: protein concentration: 200 nM; construct: GST-full length.
T1 sequence: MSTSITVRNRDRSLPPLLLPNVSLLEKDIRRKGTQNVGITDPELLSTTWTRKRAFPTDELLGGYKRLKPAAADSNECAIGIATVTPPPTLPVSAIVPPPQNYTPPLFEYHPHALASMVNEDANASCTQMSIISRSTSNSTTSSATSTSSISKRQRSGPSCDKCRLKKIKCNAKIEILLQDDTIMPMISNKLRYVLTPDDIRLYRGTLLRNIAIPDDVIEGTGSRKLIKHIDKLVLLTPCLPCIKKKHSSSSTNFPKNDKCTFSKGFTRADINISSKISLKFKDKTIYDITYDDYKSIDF
Summary of the method: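 Universal all-10-mer Agilent arrays, double-stranded by primer extension on fresh or once-stripped slides, were probed with about 100-200 nM GST-tagged yeast transcription factors made by PURExpress. Fluorescent anti-GST detected bound protein, and masliner normalised the scans. E-scores from the Universal PBM Analysis Suite were given to each ungapped eight-base word pooled with its reverse complement.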

| Sequence | PBM E-score |
| --- | --- |
| AAGCCGGC | -0.0295 |
| CACTATAA | -0.0412 |
| ATATACTC | 0.197 |
| CATGCGTA | -0.0829 |
| AGGGCATC | -0.342 |
| AATACTAA | 0.142 |
| TGCACGCA | -0.215 |
| CCAAGAAA | 0.241 |
| AACGTTCA | -0.107 |
| GGTAGGAA | -0.0664 |
| ATCAAAAT | 0.0556 |
| TAACCGAA | 0.153 |
| CCGTCGCC | 0.0379 |
| ACGGACTA | 0.431 |
| GGTGAATA | 0.0691 |
| AAACAGAC | 0.145 |
| ATCTGATC | 0.0604 |
| CGCTTAAG | -0.181 |
| AAGACGAT | 0.0734 |
| ATGAGCAA | 0.0991 |
| GCGTACTA | -0.0972 |
| AGCGCGCC | -0.013 |
| AGGACAGC | -0.111 |
| GACACCCC | -0.179 |
| CACTAACC | 0.0907 |

| Sequence | PBM E-score |
| --- | --- |
| ACAAGTGA | 0.016 |
| CGAAGTGA | -0.0287 |
| GCACGAGC | -0.249 |
| ACGTTCGG | 0.0303 |
| AGAAACAT | 0.14 |
| GCATAGAC | -0.156 |
| AGGGACCA | -0.223 |
| AGTCTACC | -0.165 |
| ACTGTTAG | -0.231 |
| GCTCCGCC | 0.0486 |
| AGAAACTC | 0.225 |
| CCGGTCAC | -0.102 |
| CTCAACTC | 0.0571 |
| ACCATCGG | 0.0205 |
| AGCGCACT | -0.203 |
| GCTACTCA | 0.0293 |
| ATACAGGA | 0.154 |
| AACGATCT | -0.0568 |
| ACCGCGTA | 0.0123 |
| CCAACGGA | 0.207 |
| CCGTAAAG | 0.1 |
| AAATCATG | 0.129 |
| CTGGTGGA | -0.2 |
| GGCGCCCA | -0.104 |
| ATTCAGCA | 0.0348 |

| Sequence | PBM E-score |
| --- | --- |
| CTTTTCAA | 0.198 |
| CAAAGAGC | 0.0931 |
| GGAGCCCC | -0.0999 |
| GAAAATAC | 0.184 |
| CGTAGACA | 0.0239 |
| TGCCCCAA | -0.0828 |
| GAGGTTAC | -0.0115 |
| CCTTGTGC | -0.286 |
| CGCCGAGC | 0.0158 |
| CAGTATAC | 0.0389 |
| AACGAATG | 0.11 |
| CGGGGTTC | 0.398 |
| CAAATACG | 0.0615 |
| CTAAATGC | 0.126 |
| GGGGGAAA | -0.0546 |
| AAAGGGAA | 0.0494 |
| ATTAGAAG | 0.211 |
| CAACAGAA | -0.0506 |
| ATCCGAGG | -0.053 |
| AGGTTGCA | 0.137 |
| CAGGCCAG | -0.221 |
| CCAGGAGG | -0.301 |
| AAATCGAA | 0.0216 |
| CAGACAAG | 0.00811 |
| GATGGTTA | 0.0553 |

| Sequence | PBM E-score |
| --- | --- |
| CCAAAATA | 0.152 |
| ATGCGAAG | -0.088 |
| AAAGGTAC | 0.00948 |
| AATCGATG | 0.107 |
| ATACTGAG | 0.0977 |
| CATGTCAC | -0.0522 |
| TCCCCCGA | -0.141 |
| AGACTGCA | -0.207 |
| AGCAGGTC | -0.176 |
| ATCACTCG | 0.00678 |
| CCAGGATC | -0.201 |
| CCTAAAGG | -0.132 |
| GTTTTAGA | 0.0546 |
| AGCTGCAG | 0.0539 |
| CATCTGTC | -0.171 |
| CCCAAATC | -0.00206 |
| CCAGTCCA | -0.183 |
| AACAGGAA | 0.0176 |
| ATGTTAGA | 0.0706 |
| CTATTATA | 0.207 |
| GGAGCGCC | -0.169 |
| CCTCCGAC | 0.0212 |
| CCACTACC | -0.127 |
| CCCGAGCC | 0.0989 |
| CTAACACA | 0.158 |

| Sequence | PBM E-score |
| --- | --- |
| GCTCCTTA | 0.00361 |
| AACTACGA | 0.0864 |
| TCGCCCCA | -0.264 |
| AAGCACTA | -0.00736 |
| TATTGGCA | 0.0614 |
| CACTAGGA | -0.155 |
| CTAGACAC | -0.0413 |
| GTAGATTA | 0.292 |
| TGCAGGAA | -0.0304 |
| AAAAACCG | 0.122 |
| ATAGGCTA | 0.0372 |
| CCTAATTC | 0.0749 |
| CTCGACCC | -0.141 |
| TATCTGAA | -0.0206 |
| AAGACGGA | 0.221 |
| AATTTCGA | 0.139 |
| ATAGGAGC | -0.103 |
| GAAGAGAA | 0.0788 |
| GTTAACAA | 0.129 |
| AACAGTTC | 0.172 |
| CTCTTTGC | -0.0141 |
| GGACCCCA | -0.0896 |
| ACCTCTAC | -0.0415 |
| CGGTGCAG | -0.158 |
| GAGAGGTA | -0.246 |

| Sequence | PBM E-score |
| --- | --- |
| CAACTTTC | 0.178 |
| CGTAACCC | -0.0696 |
| AATACTTC | 0.13 |
| CATTGTCC | 0.195 |
| ACATCGTC | -0.114 |
| GCCTCCGC | -0.138 |
| ACTCGACG | 0.0405 |
| CCTCGGAC | 0.412 |
| GCGCCAAA | 0.013 |
| GTCGCACA | -0.125 |
| GCCGTCCC | -0.0362 |
| CCGATTAA | 0.267 |
| CATATGGG | -0.132 |
| AGTAAACG | -0.0776 |
| CAAATCAC | -0.0609 |
| AGATGCCT | -0.116 |
| CGATGAAA | 0.139 |
| CAATAGGG | -0.12 |
| ATAGCTGG | -0.19 |
| AGGGGCGG | -0.158 |
| ACCTAGCG | -0.151 |
| AAACCCAC | 0.0368 |
| ACATTGTC | 0.141 |
| CGAGTCCC | 0.014 |
| AAGCCTGC | -0.113 |

| Sequence | PBM E-score |
| --- | --- |
| CCGCTGTC | -0.0805 |
| CACGTAAG | -0.142 |
| AAATACTA | 0.164 |
| AAATTTGC | 0.102 |
| CCAGCAAA | -0.0863 |
| TATACCGA | 0.206 |
| ATTGACAA | 0.0436 |
| GTCTGGTA | -0.0578 |
| GAGGACCC | -0.0985 |
| TCTACCCA | -0.112 |
| GGCTCGAA | -0.0949 |
| GATGAAGC | -0.0232 |
| CATGGGTA | -0.235 |
| ATAATCAG | 0.115 |
| CGTATGAC | 0.0341 |
| AAAAATTC | 0.235 |
| ACACGTTA | -0.223 |
| AAAAGCAC | -0.00919 |
| ACCATAGC | -0.0851 |
| TAACAACA | 0.218 |
| ATTAGCCG | 0.0336 |
| CTTGTTGC | -0.143 |
| CACCTCCA | -0.134 |
| CACGTGCG | -0.26 |
| ATGTAGAC | -0.0125 |

| Sequence | PBM E-score |
| --- | --- |
| TAGGATGA | -0.0438 |
| GTATTGTA | 0.104 |
| ATAGTTAG | 0.173 |
| CACTAATA | 0.213 |
| AGACACCT | -0.173 |
| AGCATGCA | -0.136 |
| AGCTCTAA | 0.0936 |
| CTCAAGAG | -0.154 |
| ATATTGTA | 0.145 |
| CCTTACCG | 0.0245 |
| CTGCGACA | 0.0687 |
| GGGCTACC | -0.227 |
| CACACGGA | 0.12 |
| CAATGATC | 0.0137 |
| ATTGGACA | 0.0813 |
| ATAGTACG | 0.179 |
| CATCGATG | -0.21 |
| AAGCCAAG | -0.183 |
| CCACGGGC | -0.239 |
| ATACCAGG | -0.179 |
| AGATTAAC | 0.158 |
| AGTTTGAA | 0.207 |
| CTCTCAGC | -0.198 |
| CCCGCTCG | -0.259 |
| GTTTAAGA | 0.128 |

| Sequence | PBM E-score |
| --- | --- |
| ACAATTGA | 0.06 |
| ACGCAGAA | -0.00882 |
| ACCGCAGC | -0.315 |
| GAAGTGAC | -0.148 |
| CCACATGA | -0.0653 |
| CCCAATTA | 0.0988 |
| CGAAGGGC | -0.083 |
| CTCACGTC | -0.161 |
| GAAACGAA | 0.173 |
| AAAATATG | 0.206 |
| CGGGACTA | -0.146 |
| ATGCTTCG | 0.0442 |
| CGTGTGTC | -0.13 |
| GCCAATTA | 0.00797 |
| ACGTTTAG | -0.183 |
| ACAGGATC | -0.105 |
| CGGGCTCC | -0.0544 |
| AAATGATC | 0.105 |
| CTACAGGA | 0.0208 |
